Source: US20230338322A1, “GLYCERYLTRIACETATE (GTA) FOR USE IN IMPROVING BREATHING” (YISSUM RESEARCH DEVELOPMENT COMPANY OF THE HEBREW …, priority 2020, published 2023)

Assay: Treating lung cancer patient with breathing difficulties
Details: 92 old male, NSCLC advanced stage; pure GTA in hard-shell Vegicaps, oral, 12 ml a day divided among 3 meals
Procedure: A 92 old male diagnosed with lung cancer (NSCLC) at advanced stage, was suffering from shortness of breath, they looked pale and could not walk more than ˜50 m without stopping for a rest. […] The patient started taking pure glyceryl-triacetate (GTA), encapsulated in hard-shell Vegicaps (produced by Capsugel), 12 ml a day, divided among 3 meals. After 3 days the patient increased the dose to 24 ml a day and after additional 3 days they consumed a daily dose of 30 ml GTA for a period of 1 month.

In the case of `CC(=O)OCC(COC(C)=O)OC(C)=O` [GTA, Glyceryltriacetate], the “time until patient reported feeling much better and easier breathing” value is reported as ≤ 2 days.
